Assay results as given in PubChem BioAssay AID1345082 (National Center for Advancing Translational Sciences (NCATS), 2018).
In all, about 94,000 compounds went through this assay and about 4,000 (4.3%) were called active. The inconclusive results got no clear call from the source; some entries with a clear call stand among them for comparison. Calls come from the whole dose curve; as a rule, active = well fitted inhibition curve with a large enough effect; inconclusive = small, poorly fitted or top-dose-only effect; inactive = no such curve, though single readings can be large or run the other way. A potency beside an inconclusive call is a rough fit, not a confirmed value.

test: Cytotoxic Profiling in NIH 3T3 Cell Line of Diverse Libraries Using Quantitative High-Throughput Screening; conditions: NIH 3T3 viability, CellTiter-Glo ATP luminescence, 48-72 h; series mostly up to 96.7 µM; activity change, negative = cytotoxicity: at the top concentration; note: nearly all actives have a fitted effect of over 55% in size
Summary of the method: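 Cytotoxicity is measured as loss of cellular ATP: NIH 3T3 cells (400/well) are exposed to compound for 48 or 72 hr at 37 °C, then CellTiter-Glo luminescence is imaged after 10 min at room temperature.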
% is set by controls: 0 for no effect and ±100 for the full control effect; potency is the fitted concentration of half-maximal effect; tags give direction and shape of the fitted curve.

Structure (SMILES)	Potency	activity change, negative = cytotoxicity	outcome
O=C1NCc2ccccc2CC12CCCN2Cc1cccc(Br)n1 (stereo not drawn)	inconclusive: 50.1 µM [inhibitor, partial curve, poor fit]		
O=C(c1ccncc1)N1C[C@@H]2C[C@H](C1)c1ccc(C3CCCCC3)c(=O)n1C2	inconclusive: 126 µM [inhibitor, single point]		
O=C(Cc1c(F)cccc1Cl)N1CCN(Cc2ccccc2)CC(O)C1 (stereo not drawn)		inactive: -0.482%	
COc1cc2c(cc1OCc1ccccc1)N(C(=O)Cc1ccc3c(c1)OCO3)CC21CCN(C)CC1	inconclusive: 25.1 µM [inhibitor, full curve, poor fit]		
Cn1nc(C2CCCC2)cc1[C@H]1CN2CC[C@H]1C[C@@H]2CNC(=O)c1cccs1	inconclusive: 100 µM [inhibitor, partial curve, poor fit]		
CN1CCN(C(=O)Cc2c[nH]c3ncc(-c4ccc([S+](C)(=O)[O-])cc4)cc23)CC1	inconclusive: 89.1 µM [inhibitor, single point]		
O=C1NCCCCCCN(Cc2cccnc2)[C@H]2CCC[C@@H]12	inconclusive: 70.8 µM [inhibitor, single point]		
CCOC(=O)[C@H]1CN(C(=O)Cc2ccccc2)[C@]2(C)C(=O)N(CC3CC3)c3ccccc3[C@H]12	inconclusive: 50.1 µM [inhibitor, partial curve, poor fit]		
Cn1nc(-c2cccs2)cc1[C@H]1CN2CC[C@H]1C[C@@H]2CNC(=O)CCCC(=O)O			inactive [at 174 µM]
C#C[C@H]1CN2CC[C@H]1C[C@@H]2COC(=O)Nc1ccc(C(C)(C)C)cc1	active: 79.4 µM		
C=C[C@H]1CN2CC[C@H]1C[C@@H]2CNC(=O)Nc1ccc(Br)cc1	inconclusive: 70.8 µM [inhibitor, partial curve, poor fit]		
Cn1nc(-c2ccccc2)cc1[C@H]1CN2CC[C@H]1C[C@@H]2CNC(=O)NCc1ccccc1	active: 100 µM		
C=C[C@H]1CN2CC[C@H]1C[C@@H]2CNC(=O)Nc1ccc(Oc2ccccc2)cc1	inconclusive: 112 µM [inhibitor, partial curve, poor fit]		
COc1ccc(-c2cn(C[C@H]3C[C@@H]4CCN3C[C@@H]4C(=O)N(C)C)nn2)cc1	inconclusive: 35.5 µM [inhibitor, partial curve, poor fit]		
COc1cc2c(cc1Oc1ccccc1)NC(=O)C21CCN(c2ccnc(C)n2)CC1	inconclusive: 50.1 µM [inhibitor, partial curve, poor fit]		
Cc1ccncc1C(=O)N1[C@H]2CC[C@@H]1c1cnc(-c3ccccc3)nc1C2	inconclusive: 35.5 µM [inhibitor, partial curve]		
O=C(c1ccccc1)N1C[C@@H]2C[C@H](C1)c1ccc(-c3cncnc3)c(=O)n1C2		inactive: 4.16% [at 174 µM]	
CN1CCN(C(=O)Cc2c[nH]c3ncc(-c4ccc5c(c4)OCO5)cc23)CC1	inconclusive: 50.1 µM [inhibitor, partial curve, poor fit]		
O=c1cccc2n1C[C@H]1C[C@@H]2CN(C[C@H]2CN3CC[C@H]2C[C@@H]3CNS(=O)(=O)c2cccs2)C1	inconclusive: 56.2 µM [inhibitor, partial curve, poor fit]		

Structure (SMILES)	Potency	activity change, negative = cytotoxicity	outcome
COc1cc2c(cc1OC1CCCC1)NC(=O)C21CCN(c2cc(NC3CC3)ncn2)CC1	inconclusive: 44.7 µM [inhibitor, partial curve, poor fit]		
CC1=NOC2(CCN(Cc3ccsc3)C2)C1 (stereo not drawn)		inactive: -3.99% [at 138 µM]	
O=C(Nc1ccc(=O)n2c1[C@@H]1C[C@@H](CN(C(=O)c3ccc(F)cc3)C1)C2)C1CCCCC1		inactive: -14.2%	
COc1ccc(-c2cn(C[C@H]3CC4CCN3C[C@@H]4C(=O)NCc3ccc4c(c3)OCO4)nn2)cc1 (stereo partly drawn)	inconclusive: 63.1 µM [inhibitor, partial curve, poor fit]		
COc1ccc(CC(=O)N2[C@H]3CC[C@@H]2c2cnc(-c4ccc(F)cc4)nc2C3)cc1OC		inactive: -18.8%	
COc1cc2c(cc1OCc1ccccc1)NC(=O)C21CCN(Cc2ccccn2)CC1	active: 89.1 µM		
COc1cc2c(cc1Oc1ccccc1)NC(=O)C21CCN(c2ncc(C(C)C)cn2)CC1	inconclusive: 44.7 µM [inhibitor, partial curve, poor fit]		
Cn1nc(-c2ccccc2)cc1[C@H]1CN2CC[C@H]1C[C@@H]2CNS(=O)(=O)c1cccs1	inconclusive: 15.8 µM [inhibitor, full curve, poor fit]		
COc1cc2c(cc1Oc1cccc(N(C)C)c1)NC(=O)C21CCN(Cc2cccc(O)c2)CC1	inconclusive: 17.8 µM [inhibitor, full curve, poor fit]		
c1ccc(CN2CCOC[C@H]3CCNC[C@H]32)cc1		inactive: -9.45%	
c1ccc(CCCN2CCC3(CCNCC3)C2)cc1	inconclusive: 50.1 µM [inhibitor, partial curve, poor fit]		
COc1ccccc1N1CCN(C[C@H]2CN3CC[C@H]2C[C@@H]3CNC(=O)Nc2ccsc2)CC1	inconclusive: 89.1 µM [inhibitor, single point]		
CC[C@H]1CN2CC[C@H]1C[C@@H]2CNS(=O)(=O)c1ccc(OC)cc1		inactive: -4.56% [at 174 µM]	
O=C(c1ccncc1)N1CC2CCC(C1)N2Cc1ccc(Cl)cc1	inconclusive: 50.1 µM [inhibitor, partial curve, poor fit]		
CCCCOC(=O)N1C[C@H](C(=O)OCC)[C@H]2c3ccccc3N(CCOC)C(=O)[C@]21C		inactive: -29% [at 46.1 µM]	
O=S(=O)(c1cccnc1)N1[C@H]2CC[C@@H]1c1cnc(-c3ccc(F)cc3)nc1C2	inconclusive: 39.8 µM [inhibitor, partial curve, poor fit]		
COCCN1CCC(N2CCN(C(=O)Cc3cccc(C)c3)CC2)C1=O (stereo not drawn)		inactive: 1.87%	
CN1CCN(C(=O)Cc2c[nH]c3ncc(-c4cccc(OC(F)(F)F)c4)cc23)CC1	active: 79.4 µM		
C#C[C@H]1CN2CC[C@H]1C[C@@H]2CNC(=O)Nc1cc(OC)cc(OC)c1	inconclusive: 112 µM [inhibitor, partial curve, poor fit]		
